The values below come from the supplement of paper PMC4604168 (melanoma cell lines).

Assay in all cases: cell count relative to DMSO control; melanoma cells; higher = more viable cells
What all share (conditions): library dose: standard library concentration; 72 h

The subject of experiment [1] is 501Mel.
Experiment [2] concerns A101D.
In experiment [3] the test system is A2058.
The test system of experiment [4] is A375.

Some of the results follow. Repeats are few or missing, and single values can be far off.
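Also: cells treated in 1,536-well plates, then fixed and DAPI-stained, with nuclei counted from automated high-throughput microscope images.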

For the compound `CC[C@]1(O)C[C@H]2CN(CCc3c([nH]c4ccccc34)[C@@](C(=O)OC)(c3cc4c(cc3OC)N(C=O)[C@H]3[C@@](O)(C(=O)OC)[C@H](OC(C)=O)[C@]5(CC)C=CCN6CC[C@]43[C@@H]65)C2)C1` [vincristine] + COc1ccc2c(c1)CCC1C2CCC2(C)C(NCCCCCCN3C(=O)C=CC3=O)CCC12 [U73122] (first compound 0.0005 µM, partner dose 2 µM), the cell count in experiment [1] was determined as 119%; in experiment [2] it was 47.5%; in experiment [3], 48.8%; in experiment [4], 75.3%.

Take `Cc1cc(Nc2cc(N3CCN(C)CC3)nc(Sc3ccc(NC(=O)C4CC4)cc3)n2)n[nH]1` [Tozasertib] + CCc1ccc(CCOc2ccc(CC3SC(=O)NC3=O)cc2)nc1 [pioglitazone] (first compound 0.03 µM, partner dose 10 µM): the cell count in experiment [1] is 98.3%; in experiment [2], 94.6%; in experiment [3], 80.3%; in experiment [4], 113%.

`N#CC[C@H](C1CCCC1)n1cc(-c2ncnc3[nH]ccc23)cn1` [ruxolitinib] + COc1ccc(-c2ccc3c(N4CCOCC4)nc(N4C[C@@H](C)O[C@@H](C)C4)nc3n2)cc1CO [KU0063794] (first compound 5 µM, partner dose 0.1 µM): the cell count in experiment [1] is 80.3%; in experiment [2] it was 97.5%; in experiment [3], 79.8%; in experiment [4] it was 95%.

For the compound `CC[C@]1(O)C[C@H]2CN(CCc3c([nH]c4ccccc34)[C@@](C(=O)OC)(c3cc4c(cc3OC)N(C=O)[C@H]3[C@@](O)(C(=O)OC)[C@H](OC(C)=O)[C@]5(CC)C=CCN6CC[C@]43[C@@H]65)C2)C1` [vincristine] + COc1ccc(-c2ccc3c(N4CCOCC4)nc(N4C[C@@H](C)O[C@@H](C)C4)nc3n2)cc1CO [KU0063794] (first compound 0.0005 µM, partner dose 0.1 µM), the cell count came to 95.1% in experiment [1], 73.4% in experiment [2], 33.9% in experiment [3] and 94.3% in experiment [4].
